Assay results: PMC4336329 (PLoS ONE, 2015)
The whole screen tested about 310,000 compounds, of which about 14,000 (4.5%) showed an effect of 50% or more. Effects have a minus sign here. This is one part of the list.

Target: human ether-à-go-go-related gene (hERG) potassium channel (human, UniProt Q12809)
Assay: primary screen, population patch clamp on CHO cells stably expressing hERG
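Note: peak tail current of the secondary pulse compared with the same well before compound.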

Sequence of human ether-à-go-go-related gene (hERG) potassium channel (Q12809 whole entry, looked up): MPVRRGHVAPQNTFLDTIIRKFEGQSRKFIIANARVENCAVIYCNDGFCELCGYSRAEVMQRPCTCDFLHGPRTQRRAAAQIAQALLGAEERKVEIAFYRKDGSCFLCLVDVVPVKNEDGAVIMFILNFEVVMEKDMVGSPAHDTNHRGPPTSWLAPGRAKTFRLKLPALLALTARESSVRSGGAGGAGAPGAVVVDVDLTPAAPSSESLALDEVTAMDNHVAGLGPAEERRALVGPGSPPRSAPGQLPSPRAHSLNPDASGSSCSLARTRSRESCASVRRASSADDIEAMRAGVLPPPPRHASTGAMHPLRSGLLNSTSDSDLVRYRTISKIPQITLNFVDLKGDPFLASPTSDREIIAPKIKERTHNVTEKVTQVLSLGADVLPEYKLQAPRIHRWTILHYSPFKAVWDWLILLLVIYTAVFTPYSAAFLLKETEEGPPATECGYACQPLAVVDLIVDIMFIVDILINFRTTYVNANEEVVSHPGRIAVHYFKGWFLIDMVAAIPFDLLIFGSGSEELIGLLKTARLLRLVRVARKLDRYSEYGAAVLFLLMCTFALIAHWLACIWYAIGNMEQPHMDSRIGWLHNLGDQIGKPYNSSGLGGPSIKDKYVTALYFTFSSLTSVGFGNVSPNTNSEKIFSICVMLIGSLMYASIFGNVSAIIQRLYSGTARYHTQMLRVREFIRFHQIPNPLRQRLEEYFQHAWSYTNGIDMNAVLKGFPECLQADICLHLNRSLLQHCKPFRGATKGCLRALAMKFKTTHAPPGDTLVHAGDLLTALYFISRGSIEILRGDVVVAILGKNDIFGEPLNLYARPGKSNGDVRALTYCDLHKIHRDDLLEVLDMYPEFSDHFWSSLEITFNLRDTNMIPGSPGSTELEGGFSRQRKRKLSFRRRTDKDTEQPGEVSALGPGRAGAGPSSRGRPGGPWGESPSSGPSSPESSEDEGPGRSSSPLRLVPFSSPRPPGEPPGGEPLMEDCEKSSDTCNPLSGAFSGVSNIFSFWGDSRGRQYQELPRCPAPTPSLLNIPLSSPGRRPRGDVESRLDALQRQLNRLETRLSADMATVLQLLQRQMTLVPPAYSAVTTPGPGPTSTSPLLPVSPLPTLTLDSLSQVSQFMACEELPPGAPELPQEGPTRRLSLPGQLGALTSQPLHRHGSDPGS

Row | SMILES | hERG current change (%, negative = inhibition) at 10uM [%]
1 | CC(=O)c1ccc(NC(=O)Cn2cnc(S(=O)(=O)N3CCC(C)CC3)c2)cc1 | 21.4
2 | COC(=O)c1cc(=O)n(CCc2ccc(OC)c(OC)c2)c(=Nc2ccc(F)c(Cl)c2)s1 | -3.78
3 | Cc1cc(Cl)ccc1NC(=S)NCc1cccs1 | 5.68
4 | Cc1[nH]c(=O)[nH]c(=O)c1S(=O)(=O)Nc1ccc(F)cc1F | 11.8
5 | CN(C)CP(=O)(Nc1ccccc1)N(C)C (stereo not shown) | 25.8
6 | Cc1ccc(S(=O)(=O)c2nc(-c3ccco3)oc2SCC(N)=O)cc1 | -16.6
7 | Cc1ccccc1NC(=O)CN1C(=O)CSc2ccc(S(=O)(=O)N3CCCCC3)cc21 | 12.2
8 | CCOC(=O)C1=C(C)N=C2SC(C)C(=O)N2C1c1ccc(OC(C)=O)c(OCC)c1 (stereo not shown) | 6.67
9 | COc1ccc2nc(NC(=O)C(NS(=O)(=O)c3cccs3)C(C)C)sc2c1 (stereo not shown) | 8.73
10 | O=c1cc(CNc2cc(Cl)ccc2Cl)nc2sccn12 | 9.99
11 | COc1ccc(NC(C)=O)cc1NC(=O)CN1CCN(c2ccccn2)CC1 | 10.3
12 | NC1=NC[C@H](Cc2ccc(O)cc2)N1CCc1cc(C(F)(F)F)cc(C(F)(F)F)c1 | 6.86
13 | COc1ccc2c(c1)c(C(=O)CN1CCCCC1)c(C)n2C | 4.9
14 | O=C1C2C3CC(C(Br)C3Br)C2C(=O)N1c1ccccn1 (stereo not shown) | 5.5
15 | Cc1ccc(S(=O)(=O)N2CCOCC2)cc1C(=O)NC(=S)N(Cc1ccccc1)C(C)C | 7.15
16 | CCc1cc(C(=O)OC)c(NC(=O)CC2SC(N)=NC2=O)s1 (stereo not shown) | -6.56
17 | COc1ccc(C(=O)CCN2CCCCCC2)cc1.Cl | -20
18 | CCOc1ccccc1C(=O)N(CCC(=O)OC)c1ccccn1 | 13.7
19 | O=C(CSc1nnnn1C1CCCCC1)Nc1ccc2c(c1)OCO2 | 14
20 | O=C(O)CCc1nn2c3ccccc3nc2n(Cc2ccccc2)c1=O | 36.2
21 | COCCC1CCCCN1C(=O)c1cc(COc2ccc(C)nc2)on1 (stereo not shown) | -16.2
22 | O=C(NNC(=O)c1sc2cccc(Cl)c2c1Cl)NC1CCCCC1 | 13.8

Row | SMILES | hERG current change (%, negative = inhibition) at 10uM [%]
23 | O=C(NCCCc1ccccc1)C1CC(=O)N(c2ccc3c(c2)OCCO3)C1 (stereo not shown) | -11.1
24 | CN1C(=S)SC(N(O)C(=O)Nc2ccc(Cl)c(Cl)c2)C1(C)C (stereo not shown) | 1.39
25 | COc1ccc(C(=O)CSc2nnnn2Cc2ccccc2)cc1 | -2.62
26 | CSc1cccc(NC(=O)CCS(=O)(=O)c2cccc3nonc23)c1 | -15.1
27 | CC(=O)NC(Cc1cccc(F)c1)C(=O)NC1CCN(c2nnnn2-c2ccccc2)CC1 (stereo not shown) | -5.71
28 | O=C1CCCN1CC(O)CS(=O)(=O)Cc1ccccc1 (stereo not shown) | 12.9
29 | CC1(c2ccc(Cl)cc2)NC(=O)N(CN2CCOCC2)C1=O (stereo not shown) | 19
30 | COc1ccccc1N1C(=O)Cc2ccccc2C1=O | 13.3
31 | COC(=O)C1=C(c2ccc(-c3ccccc3)c(F)c2)C[C@@H]2CC[C@H]1N2C(=O)NCCOc1ccccc1Cl | 13.4
32 | Cc1cc2cc(C(c3nnnn3Cc3ccco3)N3CCCCC3)c(=O)[nH]c2cc1C (stereo not shown) | 21.9
33 | COC(=O)C1(CC2CC(c3ccccc3)=NO2)CCN(C(=O)OC(C)(C)C)CC1 (stereo not shown) | -11.4
34 | N#Cc1cccc(NC(=O)CSc2ccccc2)c1 | 1.96
35 | CC[C@@H](C)C(NC(=O)OC(C)(C)C)c1cn([C@@H](CCC(=O)OC(C)(C)C)C(=O)N2CCN(C(=O)OC(C)(C)C)CC2)nn1 (stereo partly shown) | -17.6
36 | CC(Cc1ccccc1)NC(=O)Cc1ccc(N(C)C)cc1 (stereo not shown) | 2.93
37 | Cc1ccccc1CNC(=O)c1cc2ccccc2o1 | 3.09
38 | O=C(CN1CCOCC1)Nc1nc(-c2ccc3c(c2)CCN3S(=O)(=O)c2ccccc2)cs1 | 15.5
39 | COc1cccc(CNC(=O)C2CC(=O)N(c3ccc4c(c3)OCCO4)C2)c1 (stereo not shown) | 7.58
40 | CCC(C(=O)NCCc1c[nH]c2cc(OC)ccc12)c1ccccc1 (stereo not shown) | 8.86
41 | CCCNC(=O)Nc1ccc(C(F)(F)F)cc1 | 1.65
42 | COc1ccc(-c2nnc(SCC(=O)Nc3cccnc3Cl)n2C)cc1 | -25
43 | Cc1cc(C(=O)N/N=C/c2ccc(-c3ccc(C)c(Cl)c3)o2)n[nH]1 | 2.16
44 | COc1cc(/C=C/C(=O)OCC(=O)Nc2ccccc2Sc2ccc(Cl)cc2)ccc1O | 5.21

Row | SMILES | hERG current change (%, negative = inhibition) at 10uM [%]
45 | COc1cc(Cl)c(C)cc1NC(=O)CC1SC(N2CCOCC2)=NC1=O (stereo not shown) | -7.91
46 | Cc1ccc(C(=O)NCCCNC(=O)COc2ccc(C)c(C)c2)cn1 | 1.33
47 | CCOc1c(Br)cc(C(N)=O)cc1OCc1ccccc1 | 14.8
48 | CCSc1nnc(NC(=O)C2(C)Cc3ccccc3C(=O)O2)s1 (stereo not shown) | -8.01
49 | COC(=O)C1=NN(C(=O)c2ccccc2)C(C)(O)C1 (stereo not shown) | 14.6
50 | Cc1ccc([N+](=O)[O-])cc1-c1ccc(/C=N/NC(=O)CN2CCOCC2)o1 | -38.9
51 | CCC(C)(C)NC(=O)C(c1ccc(C)o1)N(Cc1ccc2c(c1)OCO2)C(=O)c1snc(C(N)=O)c1N (stereo not shown) | 9.31
52 | CC(=O)c1cccc(NC(=O)CSc2nc(=O)n(Cc3ccccn3)c3c2CCC3)c1 | -15.2
53 | CCn1c(/C=C/Nc2ccccc2)[n+](CC)c2cc(Cl)c(Cl)cc21.[I-] | -79.3
54 | CS(=O)(=O)Nc1ccccc1C(=O)Nc1ccccc1C(=O)N1CCCC1 | 17.6
55 | O=c1[nH]c2ccccc2n1Cc1ccc(Cl)cc1 | -4.12
56 | CCc1ccc(NC(=O)Cc2c(C(=O)O)n(C)c3ccccc23)cc1 | 33.5
57 | CC1CCCCC1NC(=O)c1nn(C)c2c1CS(=O)(=O)c1ccccc1-2 (stereo not shown) | -3.59
58 | CC1CCCC(C)N1CC(O)COc1c(F)cc(Br)cc1F.Cl (stereo not shown) | -57.7
59 | COc1cccc(NC(=O)CSc2nnc(-c3cc(C)n(-c4ccccc4)c3C)o2)c1 | 7.68
60 | CC(C)n1nnnc1SCC(=O)Nc1ccc2c(c1)OCCO2 | 5.06
61 | CN(C(=O)CCOc1ccccc1)c1c(N)n(Cc2ccccc2)c(=O)[nH]c1=O | -1.84
62 | COC(=O)C1=C(c2cccc(OC)c2OC)C[C@@H]2CC[C@H]1N2C(=O)NCc1ccccc1 | -0.545
63 | Cc1ccnc(NS(=O)(=O)c2ccc(NC(=O)/C=C/c3cccs3)cc2)n1 | -4.19
64 | Cn1c(=O)c2c(nc(-n3ccnc3)n2C)n(C)c1=O | 6.48
65 | CCOC(=O)C(C)On1c(-n2nc(C)cc2C)nc2ccccc2c1=O (stereo not shown) | 9.29
66 | Cc1cc(NC(=O)CSc2nnc(-c3ccc([N+](=O)[O-])cc3)o2)no1 | 9.07

Row | SMILES | hERG current change (%, negative = inhibition) at 10uM [%]
67 | CCc1noc(C)c1C(=O)OCC(=O)NC(=O)c1ccccc1OC | 12.5
68 | CCOc1ccc(N2CSC3=C(C#N)C(c4ccco4)CC(=O)N3C2)cc1 (stereo not shown) | -6.43
69 | C/C(=N/NC(=O)c1ccccc1)C(=O)O | 8.3
70 | C=CCNC(=S)Nc1nc2c(cc1C(=O)OCC)CCCC2 | -2.03
71 | COCC1CCCN(C(=O)c2cc(COc3cncc(Cl)c3)on2)C1 (stereo not shown) | 12.5
72 | COc1ccccc1CNCC(O)(c1ccc(F)cc1)c1ccc(F)cc1 | -68
73 | CCc1c(C)nc2ccc(Br)cc2c1SCCC#N | -32.8
74 | CC(C)(C)NC(=O)CSc1nncn1NCc1ccccc1 | 8.93
75 | Nc1c(C(=O)N/N=C/c2cccnc2)cnn1-c1ccccc1 | -9.82
76 | COc1ccc(N2CCN(C(=O)c3ccc4c(=O)n5c(nc4c3)CCCCC5)CC2)cc1 | -25.4
77 | CCCn1ncc(C(=O)N(C)C2CCCN(Cc3ccccc3F)C2)c1C (stereo not shown) | 6.14
78 | O=C(c1cc2cc(Br)ccc2o1)N1CCCC1 | -8.69
79 | CN(CC(=O)Nc1ccccc1Cl)C(=O)CSc1nnc(-c2ccco2)n1C | 2.04
80 | CC(=O)c1ccc(NC(=O)c2cccs2)cc1 | 11
81 | Cc1cc(C)nc(NC(=O)CSc2nc3ccccc3s2)n1 | 2.88
82 | CC(C)C(C(=O)N1CCN(Cc2ccccc2)CC1)c1ccccc1.Cl (stereo not shown) | -4.29
83 | CCc1ccc2c(c1)cc(CN(C(=S)Nc1ccc(Cl)cc1)C1CC1)c1nnnn12 | 0.972
84 | COc1ccc2nc(SCc3ccccc3C)nc(C)c2c1 | -1.69
85 | CCCOc1ccc(Cn2cnc3ccccc32)cc1 | -10.2
86 | CC(=O)CC(C)(C)n1c[n+](C)nn1.[O-][Cl+3]([O-])([O-])[O-] | -2.63
87 | CCc1ccc(NC(=O)[C@H](C)NC(=O)C2CCN(C(=O)[C@@H](NC(=O)OC(C)(C)C)C(C)C)CC2)cc1 | -0.397
88 | CC(=O)Nc1ccccc1OCc1nnc(-c2ccc(Cl)cc2)o1 | -11.4
